Measurements from PMC8526568.
Like-named read-outs stand apart in the source and are kept apart here. Results are given in words; binding and its absence hold for the method and conditions named. Binding seen in cells or lysates may run through a third protein. Some entries that bind do so weakly or less than the wild type.

Chains of the proteins cited; added tags and fusions are not shown.
UniProt P49915: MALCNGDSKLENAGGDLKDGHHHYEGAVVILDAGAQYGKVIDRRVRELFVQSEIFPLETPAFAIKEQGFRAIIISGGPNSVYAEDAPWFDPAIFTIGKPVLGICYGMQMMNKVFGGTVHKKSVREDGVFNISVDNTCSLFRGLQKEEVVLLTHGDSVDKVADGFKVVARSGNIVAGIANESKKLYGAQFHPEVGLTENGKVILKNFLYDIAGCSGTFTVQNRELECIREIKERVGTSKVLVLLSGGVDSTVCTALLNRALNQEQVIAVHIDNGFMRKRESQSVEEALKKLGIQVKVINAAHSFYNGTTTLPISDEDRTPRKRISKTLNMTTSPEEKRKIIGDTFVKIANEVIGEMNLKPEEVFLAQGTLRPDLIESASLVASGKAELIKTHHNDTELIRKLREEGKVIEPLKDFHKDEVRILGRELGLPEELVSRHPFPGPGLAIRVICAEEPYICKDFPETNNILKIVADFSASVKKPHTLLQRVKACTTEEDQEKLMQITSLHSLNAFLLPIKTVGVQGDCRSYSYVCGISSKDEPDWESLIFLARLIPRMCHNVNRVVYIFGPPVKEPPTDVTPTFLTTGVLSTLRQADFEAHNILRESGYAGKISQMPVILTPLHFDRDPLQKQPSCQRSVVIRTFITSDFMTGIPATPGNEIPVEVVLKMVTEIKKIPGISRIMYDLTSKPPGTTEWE

Experiments:
[1] = molecular target: inosine monophosphate dehydrogenase 2 (IMPDH2), endogenous (human (endogenous in MDA-MB-231 and SK-Mel-103)) (UniProt P12268); assay: co-IP; endogenous proteins of MDA-MB-231 and SK-Mel-103 cells (transduced with control or RAC1 shRNA); immunoprecipitation with control IgG, IMPDH2- or RAC1-specific antibodies, immunoblotting
[2] = molecular target: inosine monophosphate dehydrogenase 2 (IMPDH2), endogenous (human (endogenous in MDA-MB-231 and SK-Mel-103)) (UniProt P12268); assay: as above; remark: listed apart in the source

Row | Molecule | binding [1] | binding [2]
1 | RHOA, endogenous (from UniProt P61586 1-193) | binds | –
2 | NME1 (nucleoside diphosphate kinase family member), endogenous (from UniProt P15531 1-152) (enzyme) | binds | –
3 | guanosine monophosphate synthase (GMPS), endogenous (from UniProt P49915 1-693) (enzyme) | binds | –
4 | CDC42, endogenous (from UniProt P60953 1-191) | no binding | –
5 | GMP reductase (GMPR), endogenous (enzyme, UniProt P36959 1-345) MPRIDADLKLDFKDVLLRPKRSSLKSRAEVDLERTFTFRNSKQTYSGIPIIVANMDTVGTFEMAAVMSQHSMFTAIHKHYSLDDWKLFATNHPECLQNVAVSSGSGQNDLEKMTSILEAVPQVKFICLDVANGYSEHFVEFVKLVRAKFPEHTIMAGNVVTGEMVEELILSGADIIKVGVGPGSVCTTRTKTGVGYPQLSAVIECADSAHGLKGHIISDGGCTCPGDVAKAFGAGADFVMLGGMFSGHTECAGEVFERNGRKLKLFYGMSSDTAMNKHAGGVAEYRASEGKTVEVPYKGDVENTILDILGGLRSTCTYVGAAKLKELSRRATFIRVTQQHNTVFS | – | binds
